# In the supplement of paper PMC6531468:
# Some of the results follow. Values come from read counts of a selection and are noisy. Scores sum up all selected molecules that hold the word; the word was not tested alone.
# Assays:
# Experiment in all cases: 6-mer SELEX enrichment z-score vs GST control; IMP3 is the RNA-binding protein IGF2BP3; higher = more enriched by binding
# IMP3 KH1-4 = conditions: construct: KH1-4 (164-579); SELEX round: R4
# Procedure: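 SELEX-seq with GST-tagged IMP3 KH1-4 (Pro164-Lys579) and an N40 RNA pool, round 4. 6-mer z-score of sequence-tag enrichment normalised to the corresponding GST SELEX round; RNA k-mers written as DNA (T for U).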
# IMP3 RRM1-2 = conditions: construct: RRM1-2 (1-163); SELEX round: R2
# Procedure: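 SELEX-seq with GST-tagged IMP3 RRM1-2 (Met1-Asn163) and an N40 RNA pool, round 2. 6-mer enrichment z-score normalised to GST SELEX. RNA written as DNA (T = U).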
# IMP3 full-length = IMP3 full-length (UniProt O00425); conditions: construct: FL IMP3 (1-579); SELEX round: R4
# Procedure: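 SELEX-seq with GST-tagged full-length IMP3 and an N40 RNA pool, round 4. Each 6-mer is scored as an enrichment z-score of sequence tags containing it, normalised to the matching GST SELEX round. RNA written as DNA (T = U).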
# IMP3 KH1-2 = conditions: construct: KH1-2 (164-376); SELEX round: R4
# Procedure: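 SELEX-seq with GST-tagged IMP3 KH1-2 (Pro164-Phe376) and an N40 RNA pool, round 4 (stringent 300/600 mM KCl washes). 6-mer z-score of sequence-tag enrichment normalised to the corresponding GST SELEX round; RNA k-mers written as DNA (T for U).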
# IMP3 KH3-4 = conditions: construct: KH3-4 (377-579); SELEX round: R4
# Procedure: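 SELEX-seq with GST-tagged IMP3 KH3-4 (Pro377-Lys579) and an N40 RNA pool, round 4. 6-mer z-score of sequence-tag enrichment normalised to the corresponding GST SELEX round; RNA k-mers written as DNA (T for U).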
# Chain of IMP3 KH1-2 (chain, as listed by the source): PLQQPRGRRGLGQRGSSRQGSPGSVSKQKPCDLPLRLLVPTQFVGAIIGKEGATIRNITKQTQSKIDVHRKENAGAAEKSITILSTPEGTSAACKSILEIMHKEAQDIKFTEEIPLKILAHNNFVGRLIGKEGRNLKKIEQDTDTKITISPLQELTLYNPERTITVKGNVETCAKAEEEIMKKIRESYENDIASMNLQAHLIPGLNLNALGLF
# Chain of IMP3 RRM1-2 (chain, as listed by the source): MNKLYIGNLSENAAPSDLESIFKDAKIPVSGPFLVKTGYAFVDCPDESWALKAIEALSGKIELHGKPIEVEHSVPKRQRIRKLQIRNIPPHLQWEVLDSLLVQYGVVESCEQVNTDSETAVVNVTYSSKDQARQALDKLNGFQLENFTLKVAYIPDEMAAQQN
# Chain of IMP3 KH3-4 (chain, as listed by the source): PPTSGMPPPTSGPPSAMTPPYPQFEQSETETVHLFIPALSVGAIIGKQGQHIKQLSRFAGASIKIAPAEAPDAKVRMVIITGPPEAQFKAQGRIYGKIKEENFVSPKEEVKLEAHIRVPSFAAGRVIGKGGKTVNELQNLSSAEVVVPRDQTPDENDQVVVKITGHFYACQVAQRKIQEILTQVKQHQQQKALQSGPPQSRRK
# Chain of IMP3 KH1-4 (chain, as listed by the source): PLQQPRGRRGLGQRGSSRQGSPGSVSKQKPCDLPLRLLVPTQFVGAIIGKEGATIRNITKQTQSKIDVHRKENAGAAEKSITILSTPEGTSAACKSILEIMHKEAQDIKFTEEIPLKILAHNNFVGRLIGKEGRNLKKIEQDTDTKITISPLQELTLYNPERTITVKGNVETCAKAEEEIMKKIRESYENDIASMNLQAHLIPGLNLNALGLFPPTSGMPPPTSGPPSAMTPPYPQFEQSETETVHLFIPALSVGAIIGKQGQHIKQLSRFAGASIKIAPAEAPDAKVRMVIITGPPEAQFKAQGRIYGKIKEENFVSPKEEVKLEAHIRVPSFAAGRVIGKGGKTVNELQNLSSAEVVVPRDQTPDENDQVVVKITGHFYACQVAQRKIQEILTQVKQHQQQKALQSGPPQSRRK
# Chain of UniProt O00425 (O00425 whole entry): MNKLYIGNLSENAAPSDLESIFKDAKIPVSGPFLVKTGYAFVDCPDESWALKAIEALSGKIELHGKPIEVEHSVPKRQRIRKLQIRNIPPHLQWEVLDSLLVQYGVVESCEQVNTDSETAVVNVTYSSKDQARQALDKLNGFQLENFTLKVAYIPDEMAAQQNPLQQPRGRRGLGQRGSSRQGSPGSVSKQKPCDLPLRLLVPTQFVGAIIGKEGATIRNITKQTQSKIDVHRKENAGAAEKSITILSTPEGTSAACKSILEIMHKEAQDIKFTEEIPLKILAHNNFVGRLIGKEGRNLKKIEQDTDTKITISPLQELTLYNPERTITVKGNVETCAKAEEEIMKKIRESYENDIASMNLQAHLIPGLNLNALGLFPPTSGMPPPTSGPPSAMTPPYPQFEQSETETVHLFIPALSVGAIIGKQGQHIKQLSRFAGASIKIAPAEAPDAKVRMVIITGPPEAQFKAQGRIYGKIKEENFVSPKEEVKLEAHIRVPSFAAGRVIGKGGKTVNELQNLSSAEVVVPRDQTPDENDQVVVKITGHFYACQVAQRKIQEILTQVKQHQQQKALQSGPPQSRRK
Sequence,6-mer SELEX enrichment z-score (IMP3 KH1-4),6-mer SELEX enrichment z-score (IMP3 RRM1-2),6-mer SELEX enrichment z-score (IMP3 full-length),6-mer SELEX enrichment z-score (IMP3 KH1-2),6-mer SELEX enrichment z-score (IMP3 KH3-4)
TGAGGA,0.796,-0.534,0.048,0.461,0.762
TTCACC,0.252,0.426,0.097,0.372,-0.275
CCATGT,0.24,0.033,-0.033,-0.022,-0.131
TACCCG,-1.39,-0.327,-0.903,-1.31,-1.61
CGGGTT,-0.335,0.194,0.049,-0.191,-0.04
GAAGAT,0.923,-1.09,-0.362,0.592,1.28
CGTAAT,-0.527,-0.43,-0.507,-0.517,-0.358
GTCTAT,0.163,0.345,0.156,0.1,0.286
CTCAGA,-0.666,0.33,-0.045,-0.583,-0.664
TCCGAC,-1.22,-0.521,-0.753,-1.03,-1.41
GCTGCC,0.04,-0.055,0.21,0.131,-0.364
TGCCGT,-0.271,-0.079,-0.09,-0.217,-0.294
ATTCAC,1.66,1.9,1.82,1.82,1.17
GACTGA,-0.396,-1.18,-1.05,-0.39,-0.363
TGCGAG,-1.14,-0.137,-0.355,-0.968,-0.78
GGCTTG,0.066,0.438,0.272,0.106,0.276
CGACAA,-1.1,-0.63,-0.226,-0.974,-1.17
GATTCA,0.943,0.527,0.845,0.836,0.799
CTGGTA,-0.328,0.278,-0.046,-0.235,-0.199
GAACTG,0.001,-1.08,-0.666,-0.144,-0.144
CCCAGA,-1.81,-1.37,-1.57,-1.75,-2.15
GAAGCA,-0.084,-0.135,0.166,-0.165,-0.12
GCCACG,-0.26,-0.434,0.21,-0.273,-0.554
TCCTCT,0.643,0.105,-0.088,0.487,0.153

Sequence,6-mer SELEX enrichment z-score (IMP3 KH1-4),6-mer SELEX enrichment z-score (IMP3 RRM1-2),6-mer SELEX enrichment z-score (IMP3 full-length),6-mer SELEX enrichment z-score (IMP3 KH1-2),6-mer SELEX enrichment z-score (IMP3 KH3-4)
GTGGGG,1.11,0.292,0.653,1.43,1.21
AGAAAT,0.413,-1.22,-0.722,0.292,1.36
GCGCGG,-0.112,0.061,0.748,0.055,-0.009
GTCTCC,-0.477,0.384,0.273,-0.308,-0.394
AGGGAC,0.23,-0.219,-0.113,0.184,0.11
GCTTTC,0.259,0.375,0.305,0.361,0.284
TGATGC,-0.166,-0.268,-0.374,-0.211,-0.056
GTCAGC,0.195,0.39,0.587,0.007,-0.136
CTTCTG,0.22,0.254,0.062,0.313,0.038
TCGAAT,-0.476,-0.308,-0.365,-0.506,-0.308
CTCTTA,0.312,0.214,-0.008,0.343,0.294
GGATTA,0.69,-0.204,0.012,0.496,1.06
CCCATA,-0.073,-0.213,-0.414,0.011,-0.579
CACGGG,-0.421,0.083,0.802,-0.194,-0.476
CCTACG,-1.06,-0.441,-0.958,-1.03,-1.22
ATTATG,1.39,0.028,0.253,1,1.7
AAATGT,0.197,-0.994,-1.11,-0.183,0.621
AACGAT,-0.008,-1.4,-1.01,-0.246,0.379
AGTGCA,0.449,0.236,0.641,0.198,0.253
CCAGCC,-0.607,-0.601,-0.426,-0.561,-1.33
GCCACA,1.11,1.06,1.57,0.907,0.381
AGCTGT,-0.471,0.094,-0.342,-0.456,-0.431
CCCGTA,-0.671,-0.604,-0.539,-0.617,-0.948
CTATAA,1.18,-0.485,-0.211,1.08,1.52

Sequence,6-mer SELEX enrichment z-score (IMP3 KH1-4),6-mer SELEX enrichment z-score (IMP3 RRM1-2),6-mer SELEX enrichment z-score (IMP3 full-length),6-mer SELEX enrichment z-score (IMP3 KH1-2),6-mer SELEX enrichment z-score (IMP3 KH3-4)
CCCCAG,-0.983,-0.837,-0.789,-0.764,-1.48
TGCATC,0.883,0.652,1.28,0.484,0.264
ATCTAC,0.329,0.231,0.015,0.196,0.051
ACGTAG,-1.39,-0.078,-0.782,-1.35,-1.27
GGGGGA,0.955,-0.13,0.294,1.62,1.12
CCTCCA,-0.115,-0.116,-0.373,-0.005,-0.841
TCATCA,1.46,3.08,3.05,1.47,0.91
GTTGCT,-0.057,0.4,-0.048,-0.024,0.04
AAACAA,0.004,-0.076,-0.599,0.601,1.15
ACGGAA,0.093,-1.31,-0.49,-0.15,0.205
ACGAAA,-0.827,-2.19,-1.79,-0.728,-0.201
AGGTAA,-0.165,-0.267,-0.247,-0.276,0.12
AGGTTG,0.075,0.246,0.015,0.074,0.201
GTGGGC,0.034,0.217,0.421,0.109,0.12
TTCGGG,-0.614,0.332,-0.134,-0.476,-0.297
TTCGTG,-0.26,0.228,-0.232,-0.266,-0.108
ACATAC,2,2.1,2.19,2.53,1.6
GGCTAA,0.152,0.051,0.182,0.043,0.601
GTATAC,-0.007,0.022,-0.165,-0.113,0.037
TATCCT,-0.186,0.065,-0.48,-0.193,-0.28
AGAATA,1.31,-1,-0.297,1.13,2.29
GGCAAC,0.466,0.546,1.58,0.107,0.047
ATTCCG,0.711,-0.145,0.4,0.98,0.259
CTTGGC,-0.467,0.322,0.042,-0.416,-0.458

Sequence,6-mer SELEX enrichment z-score (IMP3 KH1-4),6-mer SELEX enrichment z-score (IMP3 RRM1-2),6-mer SELEX enrichment z-score (IMP3 full-length),6-mer SELEX enrichment z-score (IMP3 KH1-2),6-mer SELEX enrichment z-score (IMP3 KH3-4)
TGCTCC,0.15,0.02,0.033,0.189,-0.164
TTGGCT,0.051,0.558,0.199,0.081,0.253
TGAGTT,-0.131,0.112,-0.204,-0.14,0.072
CAAAAG,-1.74,-1.34,-1.67,-1.73,-1.45
GGCGCA,0.242,0.431,1.45,0.234,0.346
GCTCAT,0.361,0.815,0.733,0.367,0.316
GACTCG,-1.15,-0.225,-0.523,-0.98,-0.966
TCTTGA,-0.792,0.235,-0.423,-0.695,-0.558
AGACCA,-0.722,-0.267,-0.989,-0.572,-0.851
TTATTA,1.43,0.257,0.345,1.22,1.94
CGTTAC,-0.275,0.151,-0.091,-0.264,-0.406
CTATTC,0.727,0.48,0.16,0.663,0.473
CGGGTC,-0.477,0.026,0.366,-0.277,-0.292
CGAACT,-1.1,-0.851,-1.02,-0.961,-1.07
GTTAAA,-0.319,-0.804,-0.743,-0.411,0.023
GTTGTT,-0.053,0.401,-0.132,-0.073,0.109
ATGGTA,-0.071,0.153,0.017,-0.136,0.048
TACGAA,-0.069,-1.01,-0.78,-0.122,0.158
AACTCA,-0.723,1.07,-0.194,-0.456,-0.878
CGTGTT,-0.381,0.152,-0.187,-0.376,-0.253
ATCTGT,0.432,0.224,0.34,0.311,0.259
AGGCAG,1.03,0.343,1.54,0.783,0.981
GGTCAT,0.44,0.467,0.618,0.325,0.481
AGCCGG,-0.089,-0.401,0.412,0.026,-0.141

Sequence,6-mer SELEX enrichment z-score (IMP3 KH1-4),6-mer SELEX enrichment z-score (IMP3 RRM1-2),6-mer SELEX enrichment z-score (IMP3 full-length),6-mer SELEX enrichment z-score (IMP3 KH1-2),6-mer SELEX enrichment z-score (IMP3 KH3-4)
GGAGAG,1.17,-0.574,0.427,0.984,0.904
AGTTAT,0.225,0.062,-0.136,0.1,0.26
TCGGGC,-0.892,0.499,0.361,-0.72,-0.595
GAATAG,0.743,-0.73,-0.308,0.462,1.1
GCGGAC,-0.728,-0.313,0.172,-0.616,-0.684
TTTGTT,0.532,0.485,0.237,0.441,0.662
TCCAGG,0.158,0.194,0.192,0.037,-0.073
GCGCTC,-0.442,0.369,0.546,-0.264,-0.373
ATAGGT,0.419,0.324,0.264,0.313,0.652
GTCAAC,-0.372,0.319,0.337,-0.622,-0.626
CCCGCT,-0.535,-0.155,-0.293,-0.295,-0.707
GGCGGA,-0.404,-0.115,0.413,-0.185,-0.146
GCTCAC,0.046,0.623,0.596,0.115,-0.226
GCGGTA,-0.203,0.095,0.086,-0.211,-0.06
TCCCCA,-0.374,-0.537,-0.646,-0.411,-1.28
GCCTTT,0.092,0.121,-0.093,0.142,0.172
ATGTCA,0.301,0.271,0.302,-0.08,0.218
TTGTCT,-0.018,0.458,0.12,-0.027,0.126
TTAGAT,0.754,-0.004,0.022,0.501,1.09
TAACTA,0.986,-0.355,-0.381,0.968,1.44
GGCCAC,1.43,0.456,1.7,1.14,0.97
GCGGGG,0.783,-0.028,0.872,1.28,0.927
GCTGAT,-0.056,0.041,-0.15,-0.04,0.033
GTGCCA,-0.34,-0.161,0.066,-0.423,-0.545
